In ChEMBL document CHEMBL1201862, “PubChem BioAssay data set” (2004):

Each compound was assayed on NCI-H322M (assay: inhibition of tumour cell growth, NCI panel, 48 h).

Compound	GI50
c1cc(CNCCN2CCNCC2)ccn1	inactive: > 100 µM
N#Cc1cc(-c2nc3cc(F)ccc3s2)ccc1N	active: 0.0841 µM
CN(C)Cc1c[nH]c2ncnc(O)c12	inactive: > 100 µM
O=C1/C=C(/c2ccc(O)cc2)[C@@H](O)Cc2ccc(O)cc2O1	inactive: 80.7 µM
O=C1CC(C(OCc2ccccc2)C(OCc2ccccc2)C(OCc2ccccc2)C(COCc2ccccc2)OCc2ccccc2)CC(=O)N1 (centres undefined)	inactive: > 100 µM
COc1ccc2oc3c(OC)c(OC)c(OC)cc3c(=O)c2c1	inactive: > 100 µM
COC(=O)c1cc(CC2Cc3cc4c(cc3C2=O)CCC4)cc2c1CCC2 (centres undefined)	inactive: 77.6 µM
CCN1CCN=c2c3cc(OC)ccc3n3cnc4ccc1c2c43	active: 0.207 µM
NC(=S)N/N=C/c1nccc2ccccc12	active: 0.678 µM
OCc1cc2c([nH]c3ccccc32)c(C(O)CO)n1 (centres undefined)	inactive: > 100 µM
O=[N+]([O-])c1cccc(-c2cn3c(n2)Cc2ccccc2C3)c1	inactive: 86.3 µM
O=C1CC[C@@H](S(=O)(=O)c2ccccc2)[C@H](/C=C/c2ccccc2)O1	inactive: > 100 µM
COc1ccccc1NC(=O)CC(=O)NNCC(=O)Nc1nnc(-c2ccccc2)o1	inactive: > 100 µM
Nc1cccc2cc(Cl)cnc12	inactive: > 100 µM
COc1cc2c(cc1O)C(c1cc(O)c(O)c(OC)c1)C(O)(C(=O)O)C(CO)C2O (centres undefined)	inactive: > 100 µM
Cc1cc(N)c2cc(NC(=O)Nc3ccc4nc(C)cc(N)c4c3)ccc2n1	inactive: > 100 µM
COc1cc(/C=N/c2nncs2)ccc1O	inactive: > 100 µM
COC(=O)c1c(O)ccc2c1c1c(n2-c2ccc(OC)cc2)C(=O)c2ccccc2C1=O	inactive: 18.8 µM
c1ccc2cc3c(cc2c1)OP1(Oc2cccc4cccnc24)(O3)Oc2cc3ccccc3cc2O1	inactive: 5.43 µM
N#CCSc1c(-c2ccccc2)c(=O)n(-c2ccccc2)c(=S)n1-c1ccccc1	inactive: > 100 µM
C#CN1C(=O)c2c(c(-c3ccccc3)c(-c3ccc(Oc4ccc(-c5c(-c6ccccc6)c6c(c(-c7ccccc7)c5-c5ccccc5)C(=O)N(C#C)C6=O)cc4)cc3)c(-c3ccccc3)c2-c2ccccc2)C1=O	inactive: > 100 µM
CC(=O)N(C)c1ccc(/N=C/N(C)C)cc1	inactive: > 100 µM
CN(C)CCCNC(=O)c1cc(NC(=O)CCCn2c3ccccc3c3ccccc32)cn1C	inactive: 14.1 µM

Compound	GI50
C=C1C(=O)O[C@H]2[C@@H](O)[C@H](C)CCC[C@]3(C)O[C@H]3CC[C@@]3(C)O[C@@H]3C[C@@H]12	inactive: 5.75 µM
CCN(CC)C(=O)COc1cc2c(O)c3c(O)c(C)c4c(c13)C(=O)C(C)(OC=CC(OC)C(C)C(OC(C)=O)C(C)C(O)C(C)C(O)C(C)C=CC=C(C)C(=O)N2)O4 (centres undefined)	inactive: > 100 µM
Cc1cn(C2CC(N(O)Cc3ccccc3)C(CO[Si](C)(C)C(C)(C)C)O2)c(=O)[nH]c1=O (centres undefined)	inactive: 18.7 µM and inactive: 20.6 µM
COc1ccc(CN(CCN(C)C)c2ccccn2)cc1.Cn1c(=O)c2[nH]c(Br)nc2n(C)c1=O	inactive: > 100 µM
O=C(NC1CCCCC1)c1nn[nH]c1Cl	inactive: > 100 µM
N/N=C1N=C(Cl)/C(=C/c2ccco2)N\1	inactive: 67.8 µM
CNc1nc2n(CCO)c(-c3ccccc3)c(-c3ccccc3)nc-2c(=O)n1	inactive: > 50 µM
COc1ccc(SCc2cc(OC)ccc2OC)cc1	inactive: 98.2 µM
Cc1ccnc2c1ccc1nc3ccccc3n12	inactive: > 100 µM
CC(=O)Nc1ccc(/C=N\N2C(=O)c3ccccc3C2=O)cc1	inactive: > 100 µM
CC(=O)OC[C@@]1(C)[C@@H]2[C@@H]3[C@@]4(CO[C@]3(C)C(=O)[C@@]3(O)C[C@H](C)[C@H](OC(C)=O)[C@@H]3[C@H]4OC(C)=O)[C@H](OC(=O)c3ccccc3)C[C@@H]21	inactive: > 100 µM
CC(=O)C(C(=O)C(=O)Nc1cc(Cl)c(Cl)cc1Cl)c1csc(N)n1 (centres undefined)	inactive: > 100 µM
CCOC(=O)CCC1(C(=O)O[C@@H]2C[C@H](C)CC[C@H]2C(C)C)CCCCC1=O (some centres undefined)	inactive: > 100 µM
Cc1ccc(S(=O)(=O)NCCSCCNS(=O)(=O)c2ccc(C)cc2)cc1	inactive: > 100 µM
CSCCOC(=O)C(=[N+]=[N-])c1ccc([N+](=O)[O-])cc1	inactive: > 100 µM
CC1=Nc2sc3c(c2C2=NCCN12)CCCC3	inactive: 36.4 µM
Cc1nc2c(s/c(=N\N)n2-c2ccccc2)c(=O)n1C	inactive: > 100 µM
CC(C)Cc1cnc(CC(C)C)c(=O)[nH]1	inactive: > 100 µM
CC1OC(OC2C(O[C@H]3CC[C@@]4(C)C(=CC[C@H]5[C@@H]6C[C@@H]7O[C@]8(CC[C@@H](C)CO8)[C@@H](C)[C@@H]7[C@@]6(C)CC[C@@H]54)C3)OC(CO)C(O)C2OC2OC(CO)C(O)C(O)C2O)C(O)C(O)C1O (some centres undefined)	inactive: 1.74 µM
CC1CC(c2ccc([N+](=O)[O-])cc2)=Nc2ccccc2S1 (centres undefined)	inactive: 29.1 µM
CCc1nnc2sc(-c3ccc(-c4ccccc4[N+](=O)[O-])o3)nn12	inactive: 95.7 µM
CC(C)C(=O)/C=C/c1ccccc1	inactive: > 100 µM
CN1CCCN2CCN(C)CCN(CC1)CC2	inactive: > 100 µM

Compound	GI50
CC(C)(C)OC(=O)NC12C3C4C1C1C2C3C41NC(=O)OC(C)(C)C (centres undefined)	inactive: 75 µM
O=C1c2n[nH]nc2C(=O)c2n[nH]nc21	inactive: > 100 µM
CCCCOC1CC2(c3ccc(OC)cc3)C(=O)c3ccccc3N2O1 (centres undefined)	inactive: 48.9 µM
CC(CCC(=O)O)c1ccc(Br)cc1 (centres undefined)	inactive: > 100 µM
[O-][S+](Cc1cnc2ccccc2c1)c1nc2ccccc2nc1-c1cccs1 (centres undefined)	inactive: 17.8 µM
Cc1ccc2ccc(O)cc2c1	inactive: 79.4 µM
C[S+](C)([O-])=Nn1c(=O)n2n(c1=O)[C@H]1CC[C@@H]2C1	inactive: > 100 µM
O=C1CC2(c3ccccc3)ON=C(c3ccccc3)N2c2ccccc2N1 (centres undefined)	inactive: 85.3 µM
Cc1cc(N(CCC#N)CCC#N)ccc1/C=C1\N=C(c2cc([N+](=O)[O-])ccc2Cl)N(NC(=O)c2ccc(/N=C\c3ccc(N(CCC#N)S(C)(=O)=O)cc3C)cc2)C1=O	inactive: 54.3 µM
Nn1c(=O)[nH]c2ncn(Cc3ccccc3)c2c1=O	inactive: > 100 µM
COc1cc(C2S/C(=C/c3ccccc3)C(=O)N2c2ccc([N+](=O)[O-])cc2)cc(OC)c1OC (centres undefined)	inactive: > 55.8 µM
O=C1C2C(C(=O)N1Cc1ccccc1)N(Cc1ccccc1)C(=O)N2Cc1ccccc1 (centres undefined)	inactive: > 100 µM
O=[N+]([O-])c1ccc2c(c1)C1=NN(c3ccccc3)C(c3ccccc3Br)C1CCC2 (centres undefined)	inactive: 30.5 µM
C[C@@H](CCO)OC1OC(COC(=O)C(C)(C)C)C(OC(=O)C(C)(C)C)C(OC(=O)C(C)(C)C)C1OC(=O)C(C)(C)C (some centres undefined)	inactive: 51.8 µM
Nc1c([N+](=O)[O-])nc(Cl)c2nncn12	inactive: > 100 µM
Cc1ccc(NC(=O)/C(=N/NC(=O)CC#N)C2C(=O)N(c3ccccc3)N=C2N)cc1C (centres undefined)	inactive: > 100 µM
O=C1/C(=C/c2ccc([N+](=O)[O-])cc2)Sc2scc(-c3cccc([N+](=O)[O-])c3)[n+]21	inactive: 17 µM
CCOC(=O)CCn1ncc(Cl)c(Cl)c1=O	inactive: 13.9 µM
CC(/C=N\NC(=S)N(C)C)=N/NC(=S)N(C)C	active: 0.507 µM
Nc1ncc(Cc2nc3ccccc3s2)s1	inactive: > 100 µM
Cc1cc(C)n(CC(Cn2nc(C)cc2C)=C(/C(Cl)=C(/Cl)Nc2ccc([N+](=O)[O-])cc2)[N+](=O)[O-])n1	inactive: 4.82 µM
COc1cc2cc(C(=O)N3CC(CCl)c4c3cc(N)c3ccccc43)[nH]c2cc1OCCN(C)C (centres undefined)	active: < 0.005 µM
CC(C)c1ccc(Cc2ccc(C(C)C)c(NC(=O)C(=O)Cc3cnc4ccccc4n3)c2C(C)C)c(C(C)C)c1NC(=O)C(=O)Cc1cnc2ccccc2n1	inactive: > 100 µM

Compound	GI50
O=C1c2ccccc2C(=O)N1n1c(Cc2ccc(Cl)cc2)n[nH]c1=O	inactive: > 100 µM
Cc1nn(C(=O)Cc2ccccc2)c2c1C(c1ccc(O)cc1)SC(=N)N2 (centres undefined)	inactive: > 100 µM
C/C(CC(=O)Nc1ccc([N+](=O)[O-])cc1)=N\NC(N)=O	inactive: > 100 µM
CCCCCCCCCCCC(=O)C1=C(O)CC(O)CC1=O (centres undefined)	inactive: > 100 µM
CCc1cccc(C)c1NC(=O)C(=O)Cc1nc2ccccc2s1	inactive: > 100 µM
COc1nc2c(c(=O)n1C)N=C(c1ccccc1)[C@H](C(CC(=O)c1ccccc1)c1ccccc1)C(c1ccccc1)N2 (some centres undefined)	inactive: > 100 µM
O=C1C(Cl)=C(Cl)C(=O)N1c1cccc(C(F)(F)F)c1	inactive: > 100 µM
C/C(=N\NC(=S)NC(CCC(=O)O)C(=O)O)c1ccccn1 (centres undefined)	inactive: > 100 µM
CC(=O)Oc1cccc2c1C(=O)C(Br)(Br)CCC2	inactive: 17.1 µM
COC(=O)CCCC1(CCCC(=O)OC)CCCCCCCCC(CCCC(=O)OC)(CCCC(=O)OC)C(=O)C1=O	inactive: > 100 µM
O=C(NC(CO)Cc1ccc(Oc2cc(CC(CO)NC(=O)OCc3ccccc3)ccc2OC(=O)OCc2ccccc2)cc1)OCc1ccccc1 (centres undefined)	inactive: 19.9 µM
O=c1c(-c2ccccc2Cl)coc2cc(F)ccc12	inactive: 30.3 µM
CC(=O)OCCC(O[Si](c1ccccc1)(c1ccccc1)C(C)(C)C)C(C)(C)O (centres undefined)	inactive: > 100 µM
CN1CCCCC(C(O)(c2ccccc2)c2ccccc2)C1=O (centres undefined)	inactive: > 100 µM
COC(=O)[C@]1(c2cc3ccccc3[nH]2)CC2CN(CC(=O)N(C)OC)C1C1OC(C)(C)OC21 (some centres undefined)	inactive: > 100 µM
COc1cccc2c1C(=O)c1c(O)c3c(c(O)c1C2=O)C[C@@](O)(C(=O)CO)CC3OC1CC(NCCOCC(OC(C)=O)OC(C)=O)C(O)C(C)O1 (some centres undefined)	active: < 0.01 µM
COC(=O)C1C(C(=O)OC)C2(OC)c3ccccc3-c3ccccc3C12 (centres undefined)	inactive: 54.1 µM
C[S+](C)CC1OC(n2cnc3c(N)ncnc32)C(O)C1O (centres undefined)	inactive: > 225 µM
Nc1ncnc2c1nnn2C1OC(CO)C(O)C1O (centres undefined)	inactive: 5.47 µM
COc1ccc(/N=N/N2CCCC2)cc1	inactive: > 100 µM

Where “and” joins values, the source holds several entries; their conditions need not be identical. Equal values may be shown once.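 Growth conditions: 96-well plates. Treatment: test compound, 48 hours, 5 concentrations. Analysis: linear interpolation between bracketing concentrations; unreached endpoints set to highest concentration. At the GI50, growth is halved.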 Calls of active or inactive are those of the source. Rule as the data show it: active = GI50 up to about 1.1 µM and inactive = higher.
